Assay results reported in publication PMC4336329 (PLoS ONE, 2015).
The whole screen tested about 310,000 compounds, of which about 14,000 (4.5%) showed an effect of 50% or more. Effects have a minus sign here. The list shows a part of the results.

Target: human ether-à-go-go-related gene (hERG) potassium channel (human, UniProt Q12809)
Assay: primary screen, population patch clamp on CHO cells stably expressing hERG
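Note: peak tail current of the secondary pulse compared with the same well before compound.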

Sequence of human ether-à-go-go-related gene (hERG) potassium channel (Q12809 whole entry, looked up): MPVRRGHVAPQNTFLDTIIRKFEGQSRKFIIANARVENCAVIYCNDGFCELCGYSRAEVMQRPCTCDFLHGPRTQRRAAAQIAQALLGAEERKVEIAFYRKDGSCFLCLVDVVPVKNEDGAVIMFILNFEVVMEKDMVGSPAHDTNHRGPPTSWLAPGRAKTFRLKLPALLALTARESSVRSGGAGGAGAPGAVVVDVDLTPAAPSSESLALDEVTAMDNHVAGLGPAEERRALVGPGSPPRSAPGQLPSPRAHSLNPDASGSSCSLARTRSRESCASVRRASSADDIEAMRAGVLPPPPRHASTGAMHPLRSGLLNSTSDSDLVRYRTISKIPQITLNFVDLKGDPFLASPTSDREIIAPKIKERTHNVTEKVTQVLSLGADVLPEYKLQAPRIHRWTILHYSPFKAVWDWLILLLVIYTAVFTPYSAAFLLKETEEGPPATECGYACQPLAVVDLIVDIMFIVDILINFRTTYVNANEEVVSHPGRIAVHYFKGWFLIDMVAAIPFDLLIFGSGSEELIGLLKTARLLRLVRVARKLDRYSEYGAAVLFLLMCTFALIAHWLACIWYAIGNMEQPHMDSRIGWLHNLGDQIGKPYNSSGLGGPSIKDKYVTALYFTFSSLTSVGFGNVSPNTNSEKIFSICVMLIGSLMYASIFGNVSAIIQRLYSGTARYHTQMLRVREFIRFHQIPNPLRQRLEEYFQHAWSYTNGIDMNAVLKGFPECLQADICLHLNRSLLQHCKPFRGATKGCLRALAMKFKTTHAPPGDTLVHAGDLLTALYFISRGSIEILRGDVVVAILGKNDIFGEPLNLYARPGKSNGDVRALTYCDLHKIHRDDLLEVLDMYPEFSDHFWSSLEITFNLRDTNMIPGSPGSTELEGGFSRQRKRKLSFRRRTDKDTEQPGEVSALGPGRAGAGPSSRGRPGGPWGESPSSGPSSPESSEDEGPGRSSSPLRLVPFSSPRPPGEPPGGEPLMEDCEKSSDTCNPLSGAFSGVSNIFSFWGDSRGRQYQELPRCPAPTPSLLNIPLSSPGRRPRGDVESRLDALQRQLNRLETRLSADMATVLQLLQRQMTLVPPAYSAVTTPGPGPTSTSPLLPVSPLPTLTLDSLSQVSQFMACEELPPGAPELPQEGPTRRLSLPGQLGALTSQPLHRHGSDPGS

Structure (SMILES) | hERG current change (%, negative = inhibition) at 10uM [%]
C=COCCNC(=O)Nc1ccc(Cl)c(Cl)c1 | 9.59
CCc1nnc(NC(=O)CSc2nc3[nH]ncc3c(=O)[nH]2)s1 | 21.9
C=CCNCc1ccccc1[N+](=O)[O-] | 22.2
CC(=O)c1cccc(NS(=O)(=O)c2c(C(=O)N3CCOCC3)c(C)n(C)c2C)c1 | 5.2
Cc1cc(O)c(-c2cc(C(=O)Nc3sc4c(c3C(=O)NCc3ccco3)CCC4)[nH]n2)cc1C | 33.2
COc1cccc(NC(=O)/C=C/c2ccco2)c1 | -2.58
Cc1nc2sc(C(c3ccccc3)N3CCC(O)CC3)c(O)n2n1 (stereo not drawn) | -0.814
CCOc1cc(Cl)c(S(=O)(=O)NCCCn2ccnc2)cc1Cl | -48.9
O=C(NCc1ccc(Cl)cc1)C1CCN(S(=O)(=O)N2CCOCC2)CC1 | -28.5
COc1cc(/C=N/Nc2nn3cnnc3c3ccccc23)ccc1O | 18.2
COc1ccc(/C=N/Nc2nc(N3CCCC3)nc(N3CCCC3)n2)c(OC)c1OC | -10.9
COc1ccc(C(CNC(=O)c2cccc(N(C)C)c2)N2CCCC2)cc1 (stereo not drawn) | -28.3
CCOC(=O)C(CCCCOc1cccc(CC)c1)C(=O)OCC | 16.5
CC1CC1C(=O)OCC(=O)Nc1cccc(S(=O)(=O)NC2=NCCCCC2)c1 (stereo not drawn) | -7.64
Cc1cc(C)n(-c2nc(N(c3ccccc3)c3ccccc3)nc(-n3nc(C)cc3C)n2)n1 | 11.9
CN(CC(=O)Nc1sccc1C#N)Cc1ccccc1 | 8.25
COc1cccc(NC(=O)CNC(=O)c2ccccc2)c1 | 4.4
Cn1nc(-c2ccccc2)c(N2CCCCC2)cc1=O | -2.07
O=C(COC(=O)c1ccc(Cl)nc1)NC(=O)c1ccc(OC(F)F)cc1 | -28
O=C(CSCc1ccccc1)N1CCN(Cc2ccc3c(c2)OCO3)CC1 | -22
COc1cc(CN2CCC(C(=O)N3CCCC(C)C3)CC2)cc(OC)c1O.O=C(O)C(=O)O (stereo not drawn) | 3.64
CC1CCN(CCCNC(=O)CN2C(=O)CSc3ccc(S(=O)(=O)N4CCC(C)CC4)cc32)CC1 | -54.5

Structure (SMILES) | hERG current change (%, negative = inhibition) at 10uM [%]
CC1(C)CN=C(NCc2ccccc2Cl)S1 | -16.6
O=C(COC(=O)CNC(=O)c1ccc(Cl)c([N+](=O)[O-])c1)NNC(=O)c1cccs1 | 25.1
Cc1onc(-c2ccccc2Cl)c1C(=O)NCc1ccccc1 | 12
Cc1ccc(/C=N/NC(=O)CNC(=O)c2ccc(C)c([N+](=O)[O-])c2)o1 | -18.4
COC(=O)c1cc(C#N)c(NCc2ccccc2)nc1C | -14.7
CCCCCCC#Cc1cncc(C(=O)NNC(=O)Nc2cc(Cl)cc(Cl)c2)c1 | 15.5
NC(=O)c1ccc(NC(=O)COC(=O)CC(NC(=O)c2ccccc2Cl)c2ccccc2)cc1 (stereo not drawn) | -1.35
O=C(NNS(=O)(=O)c1ccc(Cl)cc1)NC1CCCCC1 | 3.44
O=C(/C=C/c1ccc(F)cc1)OCC(=O)c1ccc[nH]1 | -6.2
O=C(Nc1ccc(Cl)cc1)Nc1ccc(C(=O)N2CCOCC2)cc1 | -3.06
CCc1nc(SCC(=O)Nc2ccccc2)c2c(=O)n(C)c(=O)n(C)c2n1 | 11.7
O=C(COc1ccccc1)Nc1ccc(S(=O)(=O)NCc2ccco2)cc1 | -17.3
Cc1ccc(NC(=O)COC(=O)c2ccc(CN3CCCC3=O)cc2)c(Cl)c1 | 50.2
Cc1cc(C)cc(NC(=O)c2cc(=O)c3ccccc3o2)c1 | 8.7
CCOC(=O)c1ccc(N2C(=O)c3n[nH]c(-c4ccco4)c3C2c2ccc([N+](=O)[O-])cc2)cc1 (stereo not drawn) | -8.12
CC1=CC2=NC(=O)CC(C)(C(=O)N(CC(=O)NC3CCCC3)c3ccccc3C)N2C=C1 (stereo not drawn) | 6.24
CN1C(=O)C(=Cc2ccc(N3CCOCC3)o2)C(=O)N(C)C1=S | -21.2
C/C(=N\NC(=O)c1cc(-c2ccc(O)cc2)nc2ccccc12)c1cccnc1 | 11.7
O=C(NC(=S)Nc1ccc(S(=O)(=O)N2CCCCC2)cc1)c1ccc(Cl)cc1 | 20.9
COc1cccc(NC(=O)Cn2nnc(C(=O)NCc3ccc4c(c3)OCO4)c2N)c1 | 18.3
CC(C)OCCCNC(=O)Cc1ccc(F)cc1 | 3.48
Cc1ccccc1-n1ncc2c1CC(C)(C)CC2NC(=O)CCC1=NNC(=O)CC1 (stereo not drawn) | -75.9

Structure (SMILES) | hERG current change (%, negative = inhibition) at 10uM [%]
O=C(NC(=S)NCC1CCCO1)c1ccco1 (stereo not drawn) | 1.71
COC(=O)C1=C(c2ccc(F)cc2OCc2ccccc2)C[C@@H]2CC[C@H]1N2C(=O)NCc1cccc(OC)c1 | 2.72
CC(OC(=O)c1cc2sccc2n1C)C(=O)NCc1ccc(F)cc1 (stereo not drawn) | -4.67
Cc1noc(NS(=O)(=O)c2ccc(NC(=O)CSc3nc4ccccc4[nH]3)cc2)c1C | -12.7
Cc1onc(-c2ccccc2)c1-c1nc2ccccc2c(=O)o1 | 23.8
CC1CCCCN1CC(=O)Nc1ccccc1Sc1ccccc1 (stereo not drawn) | -4.77
CN1CCN(C(=O)CC2(CC(=O)O)CCCC2)CC1.Cl | -1.66
COc1cccc(-n2nnc3c(=O)n(Cc4c(F)cccc4Cl)cnc32)c1 | -1.4
O=C1CCc2cc(S(=O)(=O)NCCCC(=O)N3CCN(Cc4ccc5c(c4)OCO5)CC3)ccc2N1 | -0.149
C=CCNC(=O)CN1CCC(n2c(C)nc3cc(C(F)(F)F)ccc32)CC1 | -62.1
CC1(C)Cc2c(c(N3CCOCC3)nc3sc(C#N)c(N)c23)CS1 | 10.2
COc1ccc(OC)c(NC(=S)N(CCc2c(C)[nH]c3ccc(C)cc23)Cc2cccs2)c1 | 4.8
CCSc1nnc(NC(=O)CC(C)C)s1 | 21.8
Cl.Nc1ccc2nc(C3CCCCC3)[nH]c2c1 | 8.03
CCOc1ccc(Cn2c(SCCCCC#N)nc3c2c(=O)n(C)c(=O)n3C)cc1OCC | -43.8
COc1cccc(CNC(=O)CCn2c(=O)c3cccn3c3cccnc32)c1 | -10.1
CC(=O)C1=C(C)OC(N)=C(C#N)C1c1cc2cccc(C)c2nc1Cl (stereo not drawn) | -8.82
Cc1cc(N2C(=O)C(O)=C(C(=O)c3ccco3)C2c2ccc(Cl)cc2)no1 (stereo not drawn) | -6.77
O=C(O)Cn1nnnc1SCC(=O)Nc1ccccc1F | 16.2
COc1cc(C)nc(NS(=O)(=O)c2ccc(C)cc2)n1 | 10.5
Cc1ccc(NC(=S)N/N=C/c2c(C)[nH]c3ccccc23)cc1 | 19.8
CC1CN(C(=S)Nc2ccc(Br)cc2)CC(C)O1 (stereo not drawn) | 17.7

Structure (SMILES) | hERG current change (%, negative = inhibition) at 10uM [%]
O=C(O)COc1ccc(/C=C2\SC(=Nc3ccccc3)N(c3ccccc3)C2=O)cc1 | 14.5
CCOc1ccc(-c2nc(C)sc2CC(=O)O)cc1 | 11
O=C(N/C=N/OCc1cccc(C(F)(F)F)c1)N1OC[C@@H]2COc3ccc4ccccc4c3[C@@H]21 | 17.4
C/C(=N\NC(=O)c1ccc(-c2ccccc2)cc1)C1C(=O)c2ccccc2C1=O | 23.7
COc1ccc(NC(=O)CSc2nc3c(c(=O)[nH]2)CCC3)cc1OC | 6.73
CNC(=O)CCc1nc(-c2ccc(C(C)(C)C)cc2)no1 | -1.08
COc1cc(C2N(c3ccc(Cl)cc3)C(=O)C3CCCN32)cc(OC)c1OC (stereo not drawn) | 0.883
CC1CC(=O)N(C)c2ccc([N+](=O)[O-])cc2N1 (stereo not drawn) | -4.75
Cc1cc(NC(=O)CSc2nc(-c3ccc(Cl)cc3)cs2)no1 | -5.45
Cc1ccc(NCc2ccccc2F)cc1 | 0.973
N#CC(c1cccc(C(F)(F)F)c1)(c1ncc(C(F)(F)F)cc1Cl)N1CCOCC1 (stereo not drawn) | 4.46
C=CCNC(=S)NNC(=O)c1ccc2c(c1)OCO2 | -7.24
CC(=O)c1cccc(NC(=O)CCOc2ccccc2)c1 | 6.88
COc1ccccc1N1C(=O)c2ccc(C(=O)Nc3ccc(C(=O)O)cc3)cc2C1=O | 13
CCN(CC(=O)Nc1ccc(Br)cc1F)CC(=O)NC1CCS(=O)(=O)C1 (stereo not drawn) | -6.88
Cc1cccc2[nH]c(SCC(=O)N3CCOCC3)nc12 | 9.18
O=C(Cn1ncc2c1-c1ccccc1OC2)N1CCN(Cc2ccccc2)CC1 | -68.5
O=C1Nc2cc(C(=O)N3CCc4ccccc4C3)ccc2S/C1=C\c1ccccc1 | -5.33
O=C(NCc1csc(-c2ccccc2)n1)c1ccco1 | -40
CCSc1nc2c(c(=O)n1Cc1ccccc1)SC(C)C2 (stereo not drawn) | -25
COc1ccc(-c2cc(C(=O)N/N=C/c3ccc4c(c3)OCO4)c3ccccc3n2)c(OC)c1 | 12
